The supplement of paper PMC8728848
Some of the results follow.

Experiments:
Assay in all cases: glycan array binding signal (z-score within array); higher = stronger binding
Settings in all cases: glycan notation: IUPAC condensed, linker removed; mutation: N224Q
[1] = molecular target: Fuc(a1-2)Gal
Method in brief: (§1)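 From the Consortium for Functional Glycomics database, 3228 arrays were curated, keeping only those whose protein sequence was available. Binding is given as a within-array Z-score averaged across arrays sharing a protein sequence and across linkers. Negative Z-scores can be read as non-binding.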

[2] = molecular target: Fuc(a1-2)Gal(b1-3)GalNAc
Method in brief: as §1

[3] = molecular target: Fuc(a1-2)Gal(b1-3)GalNAc(a1-3)[Fuc(a1-2)]Gal(b1-4)Glc
Method in brief: as §1

[4] = molecular target: Fuc(a1-2)Gal(b1-3)GalNAc(a1-3)[Fuc(a1-2)]Gal(b1-4)GlcNAc
Method in brief: as §1

[5] = molecular target: Fuc(a1-2)Gal(b1-3)GalNAc(b1-3)Gal
Method in brief: as §1

[6] = molecular target: Fuc(a1-2)Gal(b1-3)GalNAc(b1-3)Gal(a1-4)Gal(b1-4)Glc
Method in brief: as §1

[7] = molecular target: Fuc(a1-2)Gal(b1-3)GalNAc(b1-4)[Neu5Ac(a2-3)]Gal(b1-4)Glc
Method in brief: as §1

[8] = molecular target: Fuc(a1-2)Gal(b1-3)GlcNAc
Method in brief: as §1

[9] = molecular target: Fuc(a1-2)Gal(b1-3)GlcNAc(b1-2)Man(a1-3)[Fuc(a1-2)Gal(b1-3)GlcNAc(b1-2)Man(a1-6)]Man(b1-4)GlcNAc(b1-4)GlcNAc
Method in brief: as §1

[10] = molecular target: Fuc(a1-2)Gal(b1-3)GlcNAc(b1-2)Man(a1-3)[Fuc(a1-2)Gal(b1-3)GlcNAc(b1-2)Man(a1-6)]Man(b1-4)GlcNAc(b1-4)[Fuc(a1-6)]GlcNAc
Method in brief: as §1

[11] = molecular target: Fuc(a1-2)Gal(b1-3)GlcNAc(b1-3)Gal(b1-4)Glc
Method in brief: as §1

[12] = molecular target: Fuc(a1-2)Gal(b1-3)GlcNAc(b1-3)GalNAc
Method in brief: as §1

[13] = molecular target: Fuc(a1-2)Gal(b1-3)GlcNAc(b1-3)[Fuc(a1-2)Gal(b1-3)GlcNAc(b1-6)]GalNAc
Method in brief: as §1

[14] = molecular target: Fuc(a1-2)Gal(b1-3)GlcNAc(b1-3)[Gal(b1-4)GlcNAc(b1-6)]Gal(b1-4)Glc
Method in brief: as §1

[15] = molecular target: Fuc(a1-2)Gal(b1-3)GlcNAc(b1-3)[Neu5Ac(a2-6)Gal(b1-4)GlcNAc(b1-6)]Gal(b1-4)Glc
Method in brief: as §1

[16] = molecular target: Fuc(a1-2)Gal(b1-3)GlcNAc6S
Method in brief: as §1

[17] = molecular target: Fuc(a1-2)Gal(b1-3)[Fuc(a1-4)]GlcNAc
Method in brief: as §1

[18] = molecular target: Fuc(a1-2)Gal(b1-3)[Fuc(a1-4)]GlcNAc(b1-2)Man(a1-3)[Fuc(a1-2)Gal(b1-3)[Fuc(a1-4)]GlcNAc(b1-2)Man(a1-3)]Man(b1-4)GlcNAc(b1-4)GlcNAc
Method in brief: as §1

[19] = molecular target: Fuc(a1-2)Gal(b1-3)[Fuc(a1-4)]GlcNAc(b1-2)Man(a1-3)[Fuc(a1-2)Gal(b1-3)[Fuc(a1-4)]GlcNAc(b1-2)Man(a1-6)]Man(b1-4)GlcNAc(b1-4)[Fuc(a1-6)]GlcNAc(b1-4)[Fuc(a1-6)]GlcNAc
Method in brief: as §1

[20] = molecular target: Fuc(a1-2)Gal(b1-3)[Fuc(a1-4)]GlcNAc(b1-3)[Fuc(a1-3)[Gal(b1-4)]GlcNAc(b1-6)]Gal(b1-4)Glc
Method in brief: as §1

[21] = molecular target: Fuc(a1-2)Gal(b1-3)[Fuc(a1-4)]GlcNAc(b1-3)[Gal(b1-4)GlcNAc(b1-6)]Gal(b1-4)Glc
Method in brief: as §1

[22] = molecular target: Fuc(a1-2)Gal(b1-4)Fuc(a1-3)]GlcNAc(b1-2)Man(a1-3)[Fuc(a1-2)Gal(b1-4)[Fuc(a1-3)]GlcNAc(b1-2)Man(a1-6)]Man(b1-4)GlcNAc(b1-4)GlcNAc
Method in brief: as §1

[23] = molecular target: Fuc(a1-2)Gal(b1-4)Glc
Method in brief: as §1

[24] = molecular target: Fuc(a1-2)Gal(b1-4)Glc6S
Method in brief: as §1

[25] = molecular target: Fuc(a1-2)Gal(b1-4)GlcNAc
Method in brief: as §1

[26] = molecular target: Fuc(a1-2)Gal(b1-4)GlcNAc(b1-2)Man
Method in brief: as §1

[27] = molecular target: Fuc(a1-2)Gal(b1-4)GlcNAc(b1-2)Man(a1-3)[Fuc(a1-2)Gal(b1-4)GlcNAc(b1-2)Man(a1-6)]Man(b1-4)GlcNAc(b1-4)GlcNAc
Method in brief: as §1

[28] = molecular target: Fuc(a1-2)Gal(b1-4)GlcNAc(b1-2)Man(a1-3)[Fuc(a1-2)Gal(b1-4)GlcNAc(b1-2)Man(a1-6)]Man(b1-4)GlcNAc(b1-4)[Fuc(a1-6)]GlcNAc
Method in brief: as §1

[29] = molecular target: Fuc(a1-2)Gal(b1-4)GlcNAc(b1-2)[Fuc(a1-2)Gal(b1-4)GlcNAc(b1-4)]Man(a1-3)[Fuc(a1-2)Gal(b1-4)GlcNAc(b1-2)Man(a1-6)]Man(b1-4)GlcNAc(b1-4)GlcNAc
Method in brief: as §1

[30] = molecular target: Fuc(a1-2)Gal(b1-4)GlcNAc(b1-3)Gal(b1-4)GlcNAc
Method in brief: as §1

B1: AAL (Aleuria aurantia) (protein)
chain: MPTEFLYTSKIAAISWAATGGRQQRVYFQDLNGKIREAQRGGDNPWTGGSSQNVIGEAKLFSPLAAVTWKSAQGIQIRVYCVNKDNILSEFVYDGSKWITGQLGSVGVKVGSNSKLAALQWGGSESAPPNIRVYYQKSNGSGSSIHEYVWSGKWTAGASFGSTVPGTGIGATAIGPGRLRIYYQATDNKIREHCWDSNSWYVGGFSASASAGVSIAAISWGSTPQIRVYWQKGREELYEAAYGGSWNTPGQIKDASRPTPSLPDTFIAANSSGNIDISVFFQASGVSLQQWQWISGKGWSIGAVVPTGTPAGW
glycan array binding signal (z-score) [1]: 4.67 | glycan array binding signal (z-score) [2]: -0.139 | glycan array binding signal (z-score) [3]: -0.239 | glycan array binding signal (z-score) [4]: -0.306 | glycan array binding signal (z-score) [5]: -0.308 | glycan array binding signal (z-score) [6]: -0.169 | glycan array binding signal (z-score) [7]: -0.318 | glycan array binding signal (z-score) [8]: 0.012 | glycan array binding signal (z-score) [9]: -0.259 | glycan array binding signal (z-score) [10]: -0.196 | glycan array binding signal (z-score) [11]: 0.122 | glycan array binding signal (z-score) [12]: -0.263 | glycan array binding signal (z-score) [13]: -0.285 | glycan array binding signal (z-score) [14]: -0.262 | glycan array binding signal (z-score) [15]: -0.314 | glycan array binding signal (z-score) [16]: -0.139 | glycan array binding signal (z-score) [17]: 0.023 | glycan array binding signal (z-score) [18]: -0.241 | glycan array binding signal (z-score) [19]: 0.006 | glycan array binding signal (z-score) [20]: -0.198 | glycan array binding signal (z-score) [21]: -0.298 | glycan array binding signal (z-score) [22]: -0.123 | glycan array binding signal (z-score) [23]: 0.937 | glycan array binding signal (z-score) [24]: 2.29 | glycan array binding signal (z-score) [25]: 2.73 | glycan array binding signal (z-score) [26]: -0.281 | glycan array binding signal (z-score) [27]: 1.43 | glycan array binding signal (z-score) [28]: 0.577 | glycan array binding signal (z-score) [29]: 0.404 | glycan array binding signal (z-score) [30]: 1.39
